# Measured values taken from PubChem BioAssay (NCATS).
# The inconclusive results got no clear call from the source; some entries with a clear call stand among them for comparison. A call without a number means that no potency is given here. For some assays here: Potencies beside an inconclusive call are fits to weak or partial responses and may not hold up. Calls of active or inactive are those of the source. Calls follow the shape of the dose curve; as a rule, active = well fitted curve in the direction sought with a large enough effect; inconclusive = small, poorly fitted or top-dose-only effect, or another doubt; inactive = no such curve, though single readings can be large; an effect the other way counts as inactive or inconclusive.
# Key:
# [1] = P-glycoprotein substrates identified in KB-8-5-11 adenocarcinoma cell line, qHTS therapeutic library screen (AID 1346987); settings: activity change, negative = cytotoxicity: at 44.5 µM (top of the series); also: nearly all actives have a fitted effect of over 65% in size; also: potency is read from the fitted curve at half-maximal effect
# In short: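 Compounds are pinned in dose-response onto KB-8-5-11 cells (500 cells/well, colchicine-free medium) and left 72 h at 37 degree C. CellTiter-Glo luminescence then yields AC50 values.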
# [2] = system: Zika virus NS2B-NS3 protease (unlinked complex); assay: Primary screen GU Rhodamine qHTS for Zika virus inhibitors: Unlinked NS2B-NS3 protease assay (AID 1347159); settings: Recombinant ZIKV NS2B-NS3 protease, Rhodamine110 substrate fluorescence; activity change, negative = inhibition: at 107 µM (top of the series); also: potency is read from the fitted curve at half-maximal effect; nearly all actives have a fitted effect of over 60% in size
# In short: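 Enzyme 25 nM in Tris-HCl pH 8.0 + 0.01% Tween 20; compounds up to 114 microM, 15 min RT dark; + Rhod110 substrate 1.5 microM; read t0 and 15 min; delta fluorescence → % inhibition → 4-parameter Hill fit.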
# [3] = Primary qHTS for inhibitors of nuclear receptor binding SET domain protein 2 (NSD2) in an isogenic RCH-ACV NSD2 p.E1099K mutant (9B) (AID 1645876); settings: activity change, negative = viability loss: at 44.9 µM (top of the series) unless noted; also: nearly all actives have a fitted effect of over 70% in size
# [4] = qHTS of pediatric cancer cell lines to identify multiple opportunities for drug repurposing: Primary screen for A673 cells (AID 1347092); settings: A673 Ewing sarcoma viability, CellTiter-Glo ATP luminescence, 48 h; activity change, negative = cytotoxic: at 46 µM (top of the series); also: nearly all actives have a fitted effect of over 45% in size
# In short: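 A673 cells (500-1,000 cells/well) were treated 48 hours at 37 degrees C with compounds at 11-point (0.78 nM to 46 µM) or 8-point (0.59 nM to 46 µM) dilutions. Viability read by CellTiter-Glo luminescence; concentration-response curves fitted.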
# [5] = qHTS of pediatric cancer cell lines to identify multiple opportunities for drug repurposing: Primary screen for SK-N-MC cells (AID 1347093); settings: SK-N-MC viability, CellTiter-Glo luminescence, 48 h; activity change, negative = cytotoxic: at 46 µM (top of the series)
# In short: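 Metabolically active cells were quantified by ATP-dependent luminescence (CellTiter-Glo, 15 min at room temperature) following 48 h treatment. Cells had been plated at 500-1,000 per well and settled for 5 h beforehand.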
# [6] = qHTS of pediatric cancer cell lines to identify multiple opportunities for drug repurposing: Primary screen for NB-EBc1 cells (AID 1347095)
# In short: (§1)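 Cells seeded at 500-1,000 cells/well in growth media, rested 5 hours at 37 degrees C, 5% CO2, then dosed; MIPE compounds at 11-point (from 0.78 nM) and NPC at 8-point (from 0.59 nM) final concentrations. Viability by CellTiter-Glo luminescence after 48 hours.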
# [7] = qHTS of pediatric cancer cell lines to identify multiple opportunities for drug repurposing: Primary screen for BT-12 cells (AID 1347101); also: nearly all actives have a fitted effect of over 25% in size
# In short: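 Cells (500-1,000/well) rested 5 h, then received compounds for 48 h; metabolically active cells were measured by CellTiter-Glo luminescence. Final concentrations spanned up to 46 µM (MIPE, 11-point) or 0.59 nM-46 µM (NPC, 8-point) in primary screens, 11-point in follow-ups.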
# [8] = qHTS of pediatric cancer cell lines to identify multiple opportunities for drug repurposing: Primary screen for MG 63 (6-TG R) cells (AID 1347105); settings: MG 63 (6-TG R) viability, CellTiter-Glo, 48 h; activity change, negative = cytotoxic: at 46 µM (top of the series); also: nearly all actives have a fitted effect of over 50% in size
# In short: as §1
# [9] = biological target: Protein phosphatase 1D (Homo sapiens) (UniProt O15297); assay: Rhodamine-PBP qHTS Assay for Modulators of WT P53-Induced Phosphatase 1 (WIP1) (AID 1347425); also: potency is read from the fitted curve at half-maximal effect
# Chain of UniProt O15297 (O15297 whole entry, looked up): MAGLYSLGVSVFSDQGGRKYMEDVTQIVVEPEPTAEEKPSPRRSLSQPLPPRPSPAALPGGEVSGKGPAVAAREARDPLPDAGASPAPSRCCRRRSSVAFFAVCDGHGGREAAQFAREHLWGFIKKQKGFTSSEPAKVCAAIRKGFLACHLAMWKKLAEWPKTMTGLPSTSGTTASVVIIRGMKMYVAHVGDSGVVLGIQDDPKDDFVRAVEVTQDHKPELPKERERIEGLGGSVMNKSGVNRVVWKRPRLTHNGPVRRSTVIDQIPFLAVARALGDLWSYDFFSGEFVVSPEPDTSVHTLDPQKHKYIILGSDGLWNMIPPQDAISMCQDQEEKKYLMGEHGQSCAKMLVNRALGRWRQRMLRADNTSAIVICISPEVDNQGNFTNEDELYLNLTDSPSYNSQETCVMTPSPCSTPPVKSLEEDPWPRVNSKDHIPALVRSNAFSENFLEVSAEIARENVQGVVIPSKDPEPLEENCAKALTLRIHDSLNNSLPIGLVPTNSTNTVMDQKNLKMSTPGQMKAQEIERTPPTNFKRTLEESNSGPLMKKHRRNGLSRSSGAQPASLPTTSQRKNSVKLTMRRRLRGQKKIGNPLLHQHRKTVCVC
# In short: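 5 nM WIP1 + 10 uM Rh-PBP, 50 mM Tris pH 7.5, 30 mM MgCl2, 1 mM TCEP, 0.1 mM EGTA, BSA; cpds pinned, 1 hr RT; + 10 uM phosphopeptide; fluorescence 1-min reads x 11 min; delta = f1 - f0.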
# [10] = Primary qHTS for small molecule stabilizers of the endoplasmic reticulum resident proteome: Secreted ER Calcium Modulated Protein (SERCaMP) assay (AID 1508630); settings: SH-SY5Y GLuc-SERCaMP (Gaussia luciferase released on ER calcium loss) secretion, thapsigargin, luminescence; activity change, negative = inhibition: at 38.4 µM (top of the series) unless noted; also: potency is read from the fitted curve at half-maximal effect
# In short: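 The SH-SY5Y reporter protocol was run at 3 concentrations up to 38.3 uM (primary) or 11 concentrations (follow-up): 16 h compound, 100 nM thapsigargin for 4 h, then extracellular luciferase luminescence.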
# [11] = Primary qHTS for inhibitors of nuclear receptor binding SET domain protein 2 (NSD2) in an RCH-ACV wild type WT cells (2C) (AID 1645877); settings: activity change, negative = cell killing: at 44.9 µM (top of the series) unless noted; also: nearly all actives have a fitted effect of over 70% in size
# CP185 = assay: qHTS profiling for inhibitors of Plasmodium falciparum proliferation (AID 504749); also: nearly all actives have a fitted effect of over 60% in size; settings: P. falciparum in erythrocytes, SYBR Green DNA, 72 h; series mostly up to 28.7 µM
# In short: (§2)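 Each compound contacts P. falciparum-infected red blood cells for 72 h at 37 C; lysis buffer (Tris, EDTA, saponin, Triton X, SYBR Green I) is added and fluorescence measured next morning; values normalized to controls.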
# CP203 = assay: as above; settings: P. falciparum in erythrocytes, SYBR Green DNA, 72 h; series mostly up to 28.7 µM
# In short: as §2
# DIV14 = assay: as above; settings: P. falciparum in erythrocytes, SYBR Green DNA, 72 h; series mostly up to 28.7 µM
# In short: as §2
# GB4 = assay: as above; settings: P. falciparum in erythrocytes, SYBR Green DNA, 72 h; series mostly up to 28.7 µM
# In short: as §2
# W2 = assay: as above; settings: P. falciparum in erythrocytes, SYBR Green DNA, 72 h; series mostly up to 28.7 µM
# In short: as §2
# Tags tell the direction and shape of the fitted curve.
compound,measurement,setting,value
C/C1=C\CC[C@]2(C)O[C@@H]2[C@H](O)[C@H](C(C)C)[C@H](OC(=O)/C=C/c2ccccc2)C1,Potency,[1],"inconclusive: 16.1 µM [inhibitor, partial curve, poor fit]"
same,Potency,[2],"inconclusive: 8.91 µM [inhibitor, full curve, poor fit]"
same,Potency,[3],inactive
COc1cc(/C=C/C(=O)O[C@H]2[C@H](OC(=O)/C=C/c3cc(OC)c(O)c(OC)c3)O[C@H](CO[C@@H]3O[C@H](CO)[C@@H](O)[C@H](O)[C@H]3O)[C@@H](O)[C@@H]2O)ccc1O,Potency,[1],inactive
O=C1c2ccccc2-c2c(NCCc3ccccc3)c(=O)[nH]c3cccc1c23,Potency,[1],active: 1.16 µM
Cc1ncc(COP(=O)(O)O)c(C=O)c1O,Potency,[1],inactive
same,Potency,[4],inactive
same,Potency,[5],inactive
same,Potency,[6],inactive
same,Potency,[7],inactive
same,Potency,[8],inactive
same,Potency,[9],"inconclusive: 14.1 µM [inhibitor, single point]"
same,Potency,[10],"inconclusive: 31.6 µM [inhibitor, partial curve, poor fit]"
same,Potency,[11],inactive
same,Potency,CP185,inactive
same,Potency,CP203,inactive
same,Potency,DIV14,inactive
same,Potency,GB4,inactive
same,Potency,W2,inactive
O=C1O[C@H](C(O)CO)C(=O)C1=O (stereo not given in full),Potency,[1],inactive
